# Data as given in PubChem BioAssay AID493208 (National Center for Advancing Translational Sciences (NCATS), 2011).
# In all, about 44,000 compounds went through this assay and about 340 (0.77%) were called active. Another 5% or so got no clear call; they are omitted. Calls follow the shape of the dose curve; as a rule, active = well fitted inhibition curve with a large enough effect; inconclusive = small, poorly fitted or top-dose-only effect; inactive = flat fitted curve, though single readings scatter. Some of the results follow.
# Assay: Acumen qHTS Assay for Inhibitors of the mTORC1 Signaling Pathway in MEF (Tsc2-/-, p53-/-) Cells: Sytravon; also: nearly all actives have a fitted effect of over 50% in size;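 as to activity change, negative = inhibition: plate controls were DMSO for no effect and rapamycin for full effect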
# Settings: phospho-rpS6 immunofluorescence/PI, 24 h; series mostly up to 38.3 µM; activity change, negative = inhibition: at the top concentration
# Outline: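 Tsc2-/-, p53-/- MEFs (empty-vector stable line) in DMEM + 10% FBS were treated with compounds 24 h at 37 degree Celsius, fixed, and immunostained for phospho-rpS6 (Alexa-488) with propidium iodide counterstain. Laser-scanning cytometry gave % positive cells, normalized against 7.5 nM rapamycin and DMSO.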
# Potency is read from the fitted curve at half-maximal effect.
Compound,"activity change, negative = inhibition",Potency
CCc1ccc(NC(=O)CSc2nc3nc(C)cc(C)n3n2)cc1,inactive: -11.5%,–
COc1ccc(CCNC(=O)c2ccc3c(c2)CCN3S(=O)(=O)c2ccccc2)cc1,inactive: -4.46%,–
CCOc1cc(CNC(=O)c2cc(-c3ccccc3)n[nH]2)cc(OCC)c1OCC,inactive: -8.28%,–
O=C(CN1C(=O)C2(SCC(=O)N2c2ccc(F)c(F)c2)c2ccccc21)NCCc1ccccc1 (stereo not drawn),inactive: -7.07%,–
COc1ccc(NC(=O)c2oc3ccc(S(=O)(=O)N4CCOCC4)cc3c2C)c(OC)c1,inactive: -9.76%,–
COc1ccc(CCNC(=O)c2cnn(-c3ccc(F)cc3)c2C2CCN(C(=O)OC(C)(C)C)CC2)cc1OC,inactive: 0.833%,–
COc1ccc(N2CCN(C(=O)c3cc4c(=O)n(Cc5cccnc5)ccc4nc3C)CC2)cc1,inactive: 10.9%,–
CCOc1cc(C(c2c(C)[nH]n(-c3ccccc3)c2=O)c2c(C)[nH]n(-c3ccccc3)c2=O)ccc1O,inactive: 6.79%,–
Cc1[nH]c2ccc(C(=O)N3CCN(c4ccccc4F)CC3)cc2c1C,inactive: -4.32%,–
CCN(CC)S(=O)(=O)c1ccc(NC(=O)Cn2ncc3c([nH]c4ccccc43)c2=O)cc1,inactive: -10.2%,–
CC(Oc1ccccc1)C(=O)Nc1ccc(C(=O)OCc2cc(=O)n3nc(C(C)C)sc3n2)cc1 (stereo not drawn),inactive: -0.715%,–
CCOc1ccc(/C=C/c2nc(C#N)c(N3CCN(CC)CC3)o2)cc1,inactive: -0.734%,–
O=C(NCCc1ccc(F)cc1)C(=O)NCC(c1ccco1)S(=O)(=O)c1ccccc1 (stereo not drawn),inactive: -7.11%,–
Cc1cc(C)cc(OCC(=O)Nc2nc(-c3ccc(F)cc3)ns2)c1,inactive: -4.36%,–
Cc1ccccc1NC(=O)CSc1c(C(C)C)cnc2c1c(=O)n(C)c(=O)n2C,inactive: 5.27%,–
COC(=O)c1cc(NS(=O)(=O)c2ccc3c(c2)OCCO3)ccc1Cl,inactive: -3.92%,–
CCOc1ccccc1NC(=O)CSc1nc2ccccc2nc1N1CCOCC1,inactive: -9.84%,–
O=C(c1ccc(C(F)(F)F)cc1)N1CCC(c2noc(-c3ccc(S(=O)(=O)N4CCCC4)cc3)n2)CC1,inactive: -5.2%,–
NC(=O)c1ccccc1NC(=O)C1CCCN(c2ncnc3onc(-c4ccc(F)cc4)c23)C1 (stereo not drawn),inactive: 3.17%,–
O=C(c1cccs1)N(Cc1cccnc1)c1nc2c(Cl)cccc2s1,inactive: -1.75%,–
O=C(CCc1nc2cccnc2n1Cc1cccs1)Nc1cccc(C(F)(F)F)c1,inactive: 0.534%,–
O=C(NC1CCCC1)c1ccc2c(c1)N(Cc1ccc(C(F)(F)F)cc1)C(=O)c1ccccc1S2,inactive: -8.67%,–
Cc1ccccc1Cn1c(=O)n(Cc2ccc3c(c2)OCO3)c(=O)c2oc3ccccc3c21,inactive: -2.69%,–
COc1ccc(-c2noc(CCC(=O)N(C)c3ccccc3C)n2)cc1,inactive: -4.49%,–

Compound,"activity change, negative = inhibition",Potency
COCCCNS(=O)(=O)c1cc(-c2onc(C)c2C)ccc1OC,inactive: 5.35%,–
COc1ccc(N2CCN(C(=O)CSc3n[nH]c(-c4ccccc4)n3)CC2)cc1,inactive: 2.5%,–
CN(C)C(=O)c1ccc(NC(=O)Cn2nnnc2-c2ccccc2F)cc1,inactive: -29.4%,–
COc1ccc(Nc2c3c(nc4ccc(NC(=O)/C=C/c5cc(OC)c(OC)c(OC)c5)cc24)CCCC3)cc1OC,–,active: 2070 nM
O=C(Nc1ccc(-c2nc3cc(NC(=O)c4ccccc4Cl)ccc3o2)cc1)c1ccccc1Cl,inactive: 0.0807%,–
COc1ccccc1CNC(=O)Cc1c(C)c2c(cc(C)c3c(C)coc32)oc1=O,inactive: -10.2%,–
CN(C)c1ccc(CN(CC2CCCO2)C(=O)COc2ccccc2Cl)cc1 (stereo not drawn),inactive: 3.38%,–
COc1ccc(N(CC(=O)NCc2ccc(F)cc2)S(=O)(=O)c2c(C)noc2C)cc1,inactive: 0.638%,–
Cc1ccccc1C(=O)N(Cc1ccc(N(C)C)cc1)Cc1ccco1,inactive: -12.4%,–
COc1ccc(OC)c(-c2nc3c(C#N)c[nH]n3c2NC2CCCCC2)c1,inactive: -1.89%,–
CCCN(c1ccc(C(C)C)cc1)S(=O)(=O)c1ccc2c(c1)CCN2C(=O)CC,inactive: -7.33%,–
CN(C)c1ccc(CNC(=O)C2CCCN(S(=O)(=O)c3ccc4c(c3)oc(=O)n4C)C2)cc1 (stereo not drawn),inactive: 0.49%,–
CCc1nonc1NC(=O)c1oc2ccc(F)cc2c1C,inactive: -2.08%,–
Cc1cccc(OCC(=O)NC(Cc2c[nH]c3ccccc23)C(=O)O)c1C (stereo not drawn),inactive: 2.85%,–
COc1ccc(CCNC(=O)C(=O)NCC(c2ccc3c(c2)OCO3)N2CCOCC2)cc1 (stereo not drawn),inactive: -10.5%,–
CC1=C(C(=O)Nc2ccc(Cl)cc2)C(c2ccccc2C)n2ncc(C(=O)Nc3ccc(C)cc3)c2N1 (stereo not drawn),inactive: -18.7%,–
O=C(Nc1cc(F)ccc1F)N1CCC(CN2CCOCC2)CC1,inactive: -9.66%,–
COc1ccc(-n2cc(-c3ccccc3)c3c(NC4CCCCC4)ncnc32)cc1,inactive: 4.16%,–
COc1ccc(S(=O)(=O)NCCc2sc(C)nc2C)cc1F,inactive: -13.9%,–
Cc1ccc2c(CC(=O)Nc3cccc(Cl)c3C)coc2c1,inactive: -0.655%,–
Cc1cccc(OCCCCn2c(C3CC(=O)N(c4ccccc4Cl)C3)nc3ccccc32)c1 (stereo not drawn),inactive: -4.96%,–
Cc1ccc(-c2nc3cc(NC(=O)c4cc5ccccc5o4)ccc3o2)cc1,inactive: 9.94%,–
CCN1C(=O)c2ccccc2Sc2ccc(NC(=O)COc3ccc(Cl)cc3)cc21,inactive: 4.2%,–
CCOc1ccc(-n2c(SCC(=O)Nc3cccc(Cl)c3)nc3c(oc4ccccc43)c2=O)cc1,inactive: 0.237%,–
